# Experimental data reported in the supplement of paper PMC11055344.
# Tests used:
# amoxicillin = compound: CC1(C)S[C@@H]2[C@H](NC(=O)[C@H](N)c3ccc(O)cc3)C(=O)N2[C@H]1C(=O)O [amoxicillin]; assay: Broth microdilution.
# penicillin G = compound: CC1(C)S[C@@H]2[C@H](NC(=O)Cc3ccccc3)C(=O)N2[C@H]1C(=O)O [penicillin G]; assay: Broth microdilution.
Test System,MIC (amoxicillin) [µg/mL],MIC (penicillin G) [µg/mL]
"Streptococcus pneumoniae isolate 223 (PBP alleles 1a 2b 2x: 0_0_53, serotype: 10A)",≤ 0.01,0.03
"Streptococcus pneumoniae isolate 224 (PBP alleles 1a 2b 2x: 2_0_6, serotype: 23A)",0.03,0.03
"Streptococcus pneumoniae isolate 225 (PBP alleles 1a 2b 2x: 2_0_2, serotype: 15B/C)",≤ 0.01,≤ 0.01
"Streptococcus pneumoniae isolate 226 (PBP alleles 1a 2b 2x: 2_0_2, serotype: 21)",≤ 0.01,≤ 0.01
"Streptococcus pneumoniae isolate 227 (PBP alleles 1a 2b 2x: 2_0_2, serotype: 15B/C)",≤ 0.01,≤ 0.01
"Streptococcus pneumoniae isolate 228 (PBP alleles 1a 2b 2x: 2_0_6, serotype: 23A)",≤ 0.01,0.03
"Streptococcus pneumoniae isolate 229 (PBP alleles 1a 2b 2x: 0_0_0, serotype: 23B)",0.03,≤ 0.01
"Streptococcus pneumoniae isolate 230 (PBP alleles 1a 2b 2x: 3_6_5, serotype: 8)",≤ 0.01,0.03
"Streptococcus pneumoniae isolate 231 (PBP alleles 1a 2b 2x: 2_0_2, serotype: 15B/C)",≤ 0.01,0.03
"Streptococcus pneumoniae isolate 232 (PBP alleles 1a 2b 2x: 11_0_0, serotype: 34)",≤ 0.01,0.03
"Streptococcus pneumoniae isolate 233 (PBP alleles 1a 2b 2x: 2_0_2, serotype: 15B/C)",≤ 0.01,0.03
"Streptococcus pneumoniae isolate 234 (PBP alleles 1a 2b 2x: 78_0_0, serotype: Serogroup 24)",≤ 0.01,0.03
"Streptococcus pneumoniae isolate 235 (PBP alleles 1a 2b 2x: 2_0_2, serotype: 21)",≤ 0.01,0.03
"Streptococcus pneumoniae isolate 236 (PBP alleles 1a 2b 2x: 0_0_0, serotype: 15B/C)",≤ 0.01,0.03
"Streptococcus pneumoniae isolate 237 (PBP alleles 1a 2b 2x: 2_0_2, serotype: 23A)",0.03,0.03
"Streptococcus pneumoniae isolate 238 (PBP alleles 1a 2b 2x: 1_0_0, serotype: 15A)",≤ 0.01,≤ 0.01
"Streptococcus pneumoniae isolate 239 (PBP alleles 1a 2b 2x: 0_0_0, serotype: 23B)",0.03,0.03
"Streptococcus pneumoniae isolate 240 (PBP alleles 1a 2b 2x: 2_0_2, serotype: 21)",0.03,0.03
"Streptococcus pneumoniae isolate 241 (PBP alleles 1a 2b 2x: 2_0_3, serotype: 7C)",≤ 0.01,0.03
"Streptococcus pneumoniae isolate 242 (PBP alleles 1a 2b 2x: 2_6_0, serotype: 11A)",≤ 0.01,≤ 0.01

Test System,MIC (amoxicillin) [µg/mL],MIC (penicillin G) [µg/mL]
"Streptococcus pneumoniae isolate 243 (PBP alleles 1a 2b 2x: 2_0_2, serotype: 21)",≤ 0.01,0.03
"Streptococcus pneumoniae isolate 244 (PBP alleles 1a 2b 2x: 1_0_187, serotype: 19A)",≤ 0.01,0.03
"Streptococcus pneumoniae isolate 245 (PBP alleles 1a 2b 2x: 2_6_0, serotype: 11A)",0.03,≤ 0.01
"Streptococcus pneumoniae isolate 246 (PBP alleles 1a 2b 2x: 7_1_1, serotype: 23B1)",0.06,0.25
"Streptococcus pneumoniae isolate 247 (PBP alleles 1a 2b 2x: 1_2_2, serotype: 22F)",≤ 0.01,0.03
"Streptococcus pneumoniae isolate 248 (PBP alleles 1a 2b 2x: 0_0_2, serotype: 35B)",≤ 0.01,0.03
"Streptococcus pneumoniae isolate 249 (PBP alleles 1a 2b 2x: 0_0_2, serotype: 35B)",≤ 0.01,≤ 0.01
"Streptococcus pneumoniae isolate 250 (PBP alleles 1a 2b 2x: 2_0_2, serotype: 21)",≤ 0.01,≤ 0.01
"Streptococcus pneumoniae isolate 251 (PBP alleles 1a 2b 2x: 0_0_3, serotype: 35F)",0.03,0.03
"Streptococcus pneumoniae isolate 252 (PBP alleles 1a 2b 2x: 2_6_0, serotype: 11A)",≤ 0.01,0.03
"Streptococcus pneumoniae isolate 253 (PBP alleles 1a 2b 2x: 2_0_6, serotype: 23A)",≤ 0.01,0.03
"Streptococcus pneumoniae isolate 254 (PBP alleles 1a 2b 2x: 78_0_0, serotype: Serogroup 24)",≤ 0.01,≤ 0.01
"Streptococcus pneumoniae isolate 255 (PBP alleles 1a 2b 2x: 1_0_0, serotype: 9N)",0.03,0.03
"Streptococcus pneumoniae isolate 256 (PBP alleles 1a 2b 2x: 0_1_1, serotype: 23B1)",0.06,0.125
"Streptococcus pneumoniae isolate 257 (PBP alleles 1a 2b 2x: 1_0_0, serotype: Serogroup 24)",≤ 0.01,≤ 0.01
"Streptococcus pneumoniae isolate 258 (PBP alleles 1a 2b 2x: 2_0_2, serotype: 15B/C)",0.03,0.03
"Streptococcus pneumoniae isolate 259 (PBP alleles 1a 2b 2x: 0_0_2, serotype: 10A)",≤ 0.01,≤ 0.01
"Streptococcus pneumoniae isolate 260 (PBP alleles 1a 2b 2x: 12_0_0, serotype: 31)",≤ 0.01,≤ 0.01
"Streptococcus pneumoniae isolate 261 (PBP alleles 1a 2b 2x: 0_0_2, serotype: 35B)",≤ 0.01,0.03
"Streptococcus pneumoniae isolate 262 (PBP alleles 1a 2b 2x: 2_0_2, serotype: 21)",≤ 0.01,≤ 0.01

Test System,MIC (amoxicillin) [µg/mL],MIC (penicillin G) [µg/mL]
"Streptococcus pneumoniae isolate 263 (PBP alleles 1a 2b 2x: 2_0_6, serotype: 23A)",≤ 0.01,0.03
"Streptococcus pneumoniae isolate 264 (PBP alleles 1a 2b 2x: 0_0_0, serotype: 23B)",≤ 0.01,≤ 0.01
"Streptococcus pneumoniae isolate 265 (PBP alleles 1a 2b 2x: 7_67_1, serotype: 23B1)",0.06,0.25
"Streptococcus pneumoniae isolate 266 (PBP alleles 1a 2b 2x: 0_4_2, serotype: 6C)",0.03,0.03
"Streptococcus pneumoniae isolate 267 (PBP alleles 1a 2b 2x: 2_6_0, serotype: 11A)",≤ 0.01,≤ 0.01
"Streptococcus pneumoniae isolate 268 (PBP alleles 1a 2b 2x: 2_0_6, serotype: 33F)",≤ 0.01,0.03
"Streptococcus pneumoniae isolate 269 (PBP alleles 1a 2b 2x: 86_16_126, serotype: Non-typeable/NCC2a)",0.25,0.125
"Streptococcus pneumoniae isolate 270 (PBP alleles 1a 2b 2x: 25_7_56, serotype: Non-typeable/NCC2b)",1,1
"Streptococcus pneumoniae isolate 271 (PBP alleles 1a 2b 2x: 2_6_0, serotype: 11A)",≤ 0.01,0.03
"Streptococcus pneumoniae isolate 272 (PBP alleles 1a 2b 2x: 2_0_2, serotype: 21)",≤ 0.01,0.03
"Streptococcus pneumoniae isolate 273 (PBP alleles 1a 2b 2x: 2_3_New, serotype: 3)",0.03,0.03
"Streptococcus pneumoniae isolate 274 (PBP alleles 1a 2b 2x: 2_6_0, serotype: 11A)",≤ 0.01,0.03
"Streptococcus pneumoniae isolate 275 (PBP alleles 1a 2b 2x: 2_0_2, serotype: 15B/C)",≤ 0.01,0.03
"Streptococcus pneumoniae isolate 276 (PBP alleles 1a 2b 2x: 2_0_2, serotype: 15B/C)",≤ 0.01,0.03
"Streptococcus pneumoniae isolate 277 (PBP alleles 1a 2b 2x: 4_7_7, serotype: 35B)",1,1
"Streptococcus pneumoniae isolate 278 (PBP alleles 1a 2b 2x: 7_1_1, serotype: 23B1)",0.06,0.25
"Streptococcus pneumoniae isolate 279 (PBP alleles 1a 2b 2x: 0_0_0, serotype: 15B/C)",≤ 0.01,0.03
"Streptococcus pneumoniae isolate 280 (PBP alleles 1a 2b 2x: 86_82_162, serotype: Non-typeable/NCC2a)",≤ 0.01,≤ 0.01

# MIC of nasopharyngeal S. pneumoniae isolates by broth microdilution (range and time not stated); higher = less susceptible. No active / inactive call per row; the paper counts penicillin above 0.06 and amoxicillin above 0.5 mg/L as non-susceptible (EUCAST). The lowest value, 0.01, is taken as the floor ('<='); the source prints it plain. Penicillin G is assumed for 'penicillin'. Isolates are numbered anew. PBP alleles are the type numbers of penicillin-binding proteins 1a, 2b and 2x; equal numbers mean equal sequences.
